{"source": "PubChem BioAssay AID1631", "about": "(National Center for Advancing Translational Sciences (NCATS), 2009)", "note": "Among all 260,000 compounds or so, about 890 (0.34%) were called active. The inconclusive results got no clear call from the source; some entries with a clear call stand among them for comparison. The call rests on the fitted dose curve; in most records, active means well fitted activation curve with a large enough effect; inconclusive means small, poorly fitted or top-dose-only effect; inactive means no such curve, though single readings can be large or run the other way. No potency is given beside an inconclusive call; the fits are too rough. On the % scale 0 is the no-effect control and ±100 the full control effect; potency means the concentration at half of the fitted maximal effect; tags describe the fitted curve by direction and shape."}
{"biological_target": "Pyruvate kinase PKM (Homo sapiens) (UniProt P14618)", "sequence (P14618 whole entry, looked up, canonical isoform)": "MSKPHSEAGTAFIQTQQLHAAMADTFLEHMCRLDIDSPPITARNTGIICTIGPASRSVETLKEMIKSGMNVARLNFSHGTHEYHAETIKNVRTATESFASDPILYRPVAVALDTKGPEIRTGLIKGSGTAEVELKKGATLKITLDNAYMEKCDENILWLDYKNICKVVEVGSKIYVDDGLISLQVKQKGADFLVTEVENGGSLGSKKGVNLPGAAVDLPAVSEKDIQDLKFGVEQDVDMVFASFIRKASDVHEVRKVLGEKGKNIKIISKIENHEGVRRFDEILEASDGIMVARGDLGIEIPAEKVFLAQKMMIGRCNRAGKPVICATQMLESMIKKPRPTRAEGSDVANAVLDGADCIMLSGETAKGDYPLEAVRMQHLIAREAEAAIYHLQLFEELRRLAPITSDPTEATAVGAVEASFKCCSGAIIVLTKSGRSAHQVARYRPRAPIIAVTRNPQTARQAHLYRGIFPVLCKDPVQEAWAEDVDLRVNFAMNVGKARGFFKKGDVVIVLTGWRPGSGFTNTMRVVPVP", "test": "qHTS Assay for Activators of Human Muscle isoform 2 Pyruvate Kinase; further: nearly all actives have a fitted effect of over 55% in size", "conditions": "purified PKM2, Kinase-Glo ATP luminescence; Potency: activation; activation: at 57.5 µM (top of the series), 0% is enzyme alone, no compound", "summary_of_the_method": "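Purified hPK-M2 (>95%) run at intermediate activity with 0.1 mM ADP and 0.5 mM PEP in 50 mM imidazole pH 7.2, KCl, MgCl2; 1 h room temperature. ATP formed read by Kinase-Glo luminescence; normalized to uninhibited and no-enzyme controls.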"}
{"smiles": "Cc1csc(NC(=O)c2cc(=O)[nH]c3ccc(S(=O)(=O)N4CCOCC4)cc23)n1", "Potency": "inconclusive [rising, single point]"}
{"smiles": "O=c1ccc2cc(S(=O)(=O)Nc3ccc(F)cc3)ccc2o1", "Potency": "inconclusive [rising, partial curve]"}
{"smiles": "CC(=O)NC(c1ccc2ccccc2c1)c1ccc2cccnc2c1O", "note": "(configuration not stated)", "activation": "inactive: -1.89%"}
{"smiles": "Cc1ccc(C)c(-n2nnnc2SCC(=O)c2ccc3c(c2)NC(=O)CO3)c1", "Potency": "active: 14.1 µM"}
{"smiles": "O=C(CCC(=O)N1CCN(S(=O)(=O)c2ccc3ccccc3c2)CC1)NCC(F)(F)F", "Potency": "inconclusive [rising, partial curve]"}
{"smiles": "Cc1ccc(S(=O)(=O)c2c(N)n(/N=C/c3ccco3)c3nc4ccccc4nc23)cc1C", "Potency": "inconclusive [rising, partial curve]"}
{"smiles": "CS(=O)(=O)N(CC(=O)N1CCCC1)c1cccc(Cl)c1Cl", "Potency": "inconclusive [rising, partial curve]"}
{"smiles": "Cc1ccc(N(CC(=O)N/N=C/c2ccco2)S(=O)(=O)c2ccccc2)cc1", "Potency": "inconclusive [rising, single point]"}
{"smiles": "CCN1CCN(S(=O)(=O)c2ccc(Cl)c(C(=O)NC(C)(C)C)c2)CC1", "Potency": "inconclusive [rising, single point]"}
{"smiles": "Cc1ccc2c(c1)C1OCCC1C1N2C(=O)C2C(C(=O)O)C3C=CC21O3", "note": "(configuration not stated)", "Potency": "inconclusive [rising, partial curve, poor fit]"}
{"smiles": "Cc1cccn2cc(COc3cccc([N+](=O)[O-])c3)nc12", "Potency": "inconclusive [rising, single point]"}
{"smiles": "CCOC(=O)NCc1ccc(Cl)c(Cl)c1", "activation": "inactive: -14.7%"}
{"smiles": "CCc1nnc(NS(=O)(=O)c2ccc(NS(=O)(=O)c3ccccc3)cc2)s1", "Potency": "inconclusive [rising, partial curve]"}
{"smiles": "O=C(OCC(=O)N1CCOCC1)c1ccccc1Br", "activation": "inactive: 0.51%"}
{"smiles": "Cc1ccc2nsnc2c1S(=O)(=O)N(CCO)Cc1cc2cc3c(cc2[nH]c1=O)OCCO3", "Potency": "inconclusive [rising, single point]"}
{"smiles": "Cn1cnnc1Sc1cc(N2CCN(S(=O)(=O)c3ccccc3)CC2)ccc1[N+](=O)[O-]", "Potency": "active: 0.224 µM"}
{"smiles": "Cc1nc(NCCc2cnc[nH]2)c2oc3ccccc3c2n1", "activation": "inactive: 0.792%"}
{"smiles": "CC1(C)CC(N2CCCC2)=CC(=[N+]2CCCCCC2)C1", "activation": "inactive: 12.1%"}
{"smiles": "CN(C(=O)CSc1nc2ccccc2s1)c1c(N)n(Cc2ccccc2)c(=O)[nH]c1=O", "Potency": "inconclusive [rising, single point]"}
{"smiles": "CC1(C)c2ccccc2N2CC(=O)NC21/C=C/c1ccco1", "note": "(configuration not stated)", "Potency": "inconclusive [rising, partial curve]"}
{"smiles": "Cc1ccc(S(=O)(=O)/N=C2\\CN(C)C(=O)N2C)cc1", "Potency": "inconclusive [rising, partial curve]"}
{"smiles": "O=C(c1ccc(Cl)c(Cl)c1)N1CCOCC1", "Potency": "inconclusive [rising, single point]"}
{"smiles": "CCOC(=O)c1ccc(NC(=O)c2ccc(NC(=O)c3ccccc3)cc2)cc1", "activation": "inactive: 4.04%"}
{"smiles": "O=C(Nc1nccs1)c1ccc(S(=O)(=O)NCc2cccs2)cc1", "activation": "inactive: 7.14%"}
{"smiles": "COC(=O)c1cc(-c2ccc(C)o2)nc2ccccc12", "Potency": "inconclusive [rising, full curve]"}
{"smiles": "Cn1c(=O)oc2cc(S(=O)(=O)Nc3cccc4c3CCCC4)ccc21", "Potency": "inconclusive [rising, full curve]"}
{"smiles": "COc1ccc(S(=O)(=O)N2CCc3ccccc32)cc1C(=O)OCc1c(C)noc1C", "Potency": "active: 11.2 µM"}
{"smiles": "CCSc1nc2ccccc2n1CC(N)=O", "activation": "inactive: -1.52%"}
{"smiles": "COc1ccc(C(=O)Nc2nc3ccc(OC)cc3s2)cc1", "activation": "inactive: -0.0404%"}
{"smiles": "O=C(NC(=S)NNC(=O)c1cnccn1)c1ccc(F)cc1", "activation": "inactive: 0.769%"}
{"smiles": "Cc1cc2oc(=O)cc(CN3CCCCC3)c2cc1C(C)C", "Potency": "inconclusive [rising, single point]"}
{"smiles": "Cc1cccc(C(=O)N2CCNC(=O)C2CC(=O)Nc2cccc(Cl)c2)c1", "note": "(configuration not stated)", "activation": "inactive: -3.32%"}
{"smiles": "Cc1ccc(/C=C/C(=O)N2CCN(S(=O)(=O)c3cccs3)CC2)o1", "Potency": "inconclusive [rising, single point]"}
{"smiles": "CC(=O)N1[C@H](C)C=C[C@]1(Cc1ccccc1)C(=O)NCc1ccc(C)o1", "Potency": "inconclusive [rising, partial curve]"}
{"smiles": "CC1CCCCC1NC(=O)COC(=O)c1c2c(nc3ccccc13)/C(=C/c1ccco1)CC2", "note": "(configuration not stated)", "activation": "inactive: -3.83%"}
{"smiles": "Brc1ccccc1-c1nnc(CSc2nnnn2-c2ccccc2)o1", "Potency": "inconclusive [rising, full curve]"}
{"smiles": "CC(=O)c1sc(NC(=O)C=C(C)C)nc1C", "activation": "inactive: -11.4%"}
{"smiles": "CCOC(=O)c1c(-c2ccc(C)o2)csc1NC(=O)CN1CCN(CC)CC1", "Potency": "inconclusive [rising, single point]"}
{"smiles": "O=C1N(CCCl)c2ccc(Br)cc2C12OCCO2", "Potency": "inconclusive [rising, single point]"}
{"smiles": "O=C(O)Cc1ccccc1C(=O)O", "activation": "inactive: -3.69%"}
{"smiles": "Cc1ccccc1OCC1Cc2c(nc(N)c(C#N)c2N)O1", "note": "(configuration not stated)", "activation": "inactive: -3.44%"}
{"smiles": "C=CC1=C2C=C(C3CC3)N(CCCCO)C=C2C(=O)C(C)(OC(=O)c2ccco2)C1=O", "note": "(configuration not stated)", "activation": "inactive: 0.564% [at 11.5 µM, 0% is enzyme alone, no compound]"}
{"smiles": "COc1ccc(C2CC(c3ccccc3OC(C)=O)=NN2C(C)=O)cc1", "note": "(configuration not stated)", "Potency": "inconclusive [rising, single point]"}
{"smiles": "Cc1ccc(C2/C(=C(\\O)c3ccc4c(c3)OCCO4)C(=O)C(=O)N2CCCN(C)C)o1", "note": "(configuration not stated)", "Potency": "inconclusive [rising, partial curve]"}
{"smiles": "O=C(c1ccccc1)c1ccc2nc(N3CCN(C(=O)c4ccco4)CC3)c3nncn3c2c1", "Potency": "inconclusive [rising, full curve]"}
{"smiles": "Cc1ccc(N2C(=O)[C@@H]3[C@H](C2=O)[C@H]2C=CC=NN2[C@@H]3C(=O)Nc2ccc(Cl)cc2)cc1", "Potency": "inconclusive [rising, partial curve]"}
{"smiles": "Cc1ccc(C2CC(c3ccccc3)=NN2C(=S)Nc2ccccc2)o1", "note": "(configuration not stated)", "Potency": "inconclusive [rising, partial curve]"}
